70 compounds from PubChem BioAssay AID488969 (Vanderbilt High Throughput Screening Facility, 2010) can be followed below.

Over roughly 110,000 compounds, “z-score” has its median near -0.1; the highest 2% begin near 2. The list shows a part of the results.

The target in this test is Metabotropic glutamate receptor 8 (Rattus norvegicus) (UniProt P70579). Kind of test: rat mGluR8 modulators via GIRK flux, primary screen, cell-based, thallium flux, HTS (AID 488969). To be noted: HEK293 rat mGluR8, GIRK (G protein-gated inwardly rectifying potassium channel) thallium flux, FluoZin2; at 10 µM; stronger effect = higher value; submaximal glutamate (EC20) added with thallium.
Chain of UniProt P70579 (P70579 whole entry, looked up): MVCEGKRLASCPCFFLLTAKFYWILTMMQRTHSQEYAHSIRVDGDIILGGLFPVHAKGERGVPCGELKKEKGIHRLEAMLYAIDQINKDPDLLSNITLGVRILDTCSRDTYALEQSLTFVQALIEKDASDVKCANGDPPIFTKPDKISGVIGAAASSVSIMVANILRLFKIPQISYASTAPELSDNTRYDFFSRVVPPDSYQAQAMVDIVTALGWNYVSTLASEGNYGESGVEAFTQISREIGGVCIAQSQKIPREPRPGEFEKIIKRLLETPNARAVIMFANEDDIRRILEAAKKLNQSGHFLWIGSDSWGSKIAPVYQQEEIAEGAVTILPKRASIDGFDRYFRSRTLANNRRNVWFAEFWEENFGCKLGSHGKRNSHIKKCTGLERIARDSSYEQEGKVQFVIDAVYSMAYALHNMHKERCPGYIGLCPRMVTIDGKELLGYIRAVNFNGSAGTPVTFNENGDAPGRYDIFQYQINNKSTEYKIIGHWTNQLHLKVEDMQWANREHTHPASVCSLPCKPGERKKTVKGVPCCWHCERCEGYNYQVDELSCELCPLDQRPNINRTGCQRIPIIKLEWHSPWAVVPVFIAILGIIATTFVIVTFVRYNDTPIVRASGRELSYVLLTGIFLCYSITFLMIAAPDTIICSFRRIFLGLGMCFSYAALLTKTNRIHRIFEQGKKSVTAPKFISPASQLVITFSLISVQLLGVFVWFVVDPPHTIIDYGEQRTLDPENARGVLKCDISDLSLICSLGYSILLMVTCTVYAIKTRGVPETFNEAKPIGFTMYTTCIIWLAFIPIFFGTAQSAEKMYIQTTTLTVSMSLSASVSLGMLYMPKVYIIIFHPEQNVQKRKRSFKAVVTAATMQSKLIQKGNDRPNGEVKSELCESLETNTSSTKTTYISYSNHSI
`CCSc1nnc(NC(=O)CCc2ccccc2)s1` registered a z-score of -0.278.
`COc1ccc(/C(C)=N/OCC(=O)N=Nc2c(O)[nH]c3ccccc23)cc1` yielded a z-score of -0.165.
For `CCOC(=O)CSc1nnc(CNC(=O)c2cccs2)n1Cc1ccccc1` the value was -0.0719.
For `CCOC(=O)C1=C(Nc2ccccc2)CC(C)(O)C(C(=O)OCC)C1c1ccccc1` (stereo not given), the z-score was -0.208.
For `CC(C)C(=O)Nc1nc(-c2ccccc2)ns1` the value was 0.375; for `COc1ccc(CCNC(=O)CSc2nc(N)c3c(C)c(C)oc3n2)cc1OC`, 0.607.
`Nc1ccc(C(=O)OCc2nc3c(ccc4ccccc43)[nH]2)cc1` yielded a z-score of -0.0803.
The compound `CCn1c(SCC(=O)Nc2ccccc2N2CCOCC2)nnc1-c1ccccc1` had a z-score of -0.529.
For the compound `COC(=O)CSc1nc(C)c(C(=O)Nc2ccccc2C)c(-c2ccc(Cl)cc2)c1C#N`, the z-score is -0.236.
On to `COC(=O)c1ccc(S(=O)(=O)N2CCCC2)o1`, for which the z-score was -0.42.
Take `O=C(O)CCc1nn2c3ccccc3n(CCN3CCCCC3)c2nc1=O`: the z-score was found to be 0.0258.
For `CC(C)CC(C(=O)NC1CCCC1)N(Cc1cccs1)C(=O)c1snc(C(N)=O)c1N` (stereo not given) the value was -1.07.
In turn, `CNc1nnc(-c2ccc(N(C)C)cc2)s1` yielded a z-score of -0.187.
In the case of `C=C1Cn2c(nnc2-c2ccc(Cl)cc2)S1` it was -0.195; in that of `O=C1CCCC(O)=C1C1C2=C(CCCC2=O)Oc2ccccc21` (stereo not given), -0.42.
For `O=C(O)c1cc2nc(C3CC3)cc(C(F)(F)F)n2n1` the value was 1.23; for `Cn1c(SCc2ccc(F)cc2)nnc1-c1cccs1`, 0.134.
Compound `O=S(=O)(Nc1ccccc1)c1ccc(F)cc1` returned a z-score of 0.0918.
In the case of `Clc1cccc(N/N=C/c2ccc(N3CCOCC3)s2)c1` it was 0.0677; in that of `CCCC1(C(=O)OCC)NC(c2ccc(O)cc2)C2C(=O)N(c3ccc4c(c3)OCCO4)C(=O)C21` (stereo not given), 0.19.
Take `COC(=O)c1ccccc1NC(=O)C1CC(c2ccccc2O)=NO1` (stereo not given): the z-score came out at 2.57.
In the case of `O=C(/C=C/c1ccccc1)n1cnnc1SC/C=C/c1ccccc1` it was -0.103; in that of `COC(CNC(=O)c1cc(Sc2nnc(C)s2)nc2ccccc12)OC`, 0.115; in that of `Cc1ccc2c(c1)CCCN2C(=O)c1ccc2c(c1)OCO2`, -0.679.
In the case of `COc1cc(CNCCc2ccc(S(N)(=O)=O)cc2)ccc1OCc1ccc(Cl)cc1` it was 0.852; in that of `O=C(CSc1nnc(-c2ccncc2)n1Cc1ccccc1)NCCc1ccccc1`, -0.454.
For `CC12CCC(C/C1=N\N=C1\NC(=O)/C(=C\c3ccc(Cl)cc3)S1)C2(C)C` (stereo not given) the value was 0.00679; for `CC(=O)c1cc2c(cc1NC(=O)CN1CCCCC1C)OCO2` (stereo not given), -0.0192.
For the compound `Cc1ccc(S(=O)(=O)N/N=C\c2ccccc2OCc2ccccc2)cc1`, the z-score was -0.0338.
In the case of `OCCN(Cc1ccccc1)Cc1ccc(Cl)cc1Cl` it was 0.0495; in that of `N#CCSc1ncccc1-c1nc2ccccc2[nH]1`, -0.0878; in that of `Cc1csc(SCC(=O)NC23CC4CC(CC(C4)C2)C3)n1`, -0.149.
In the case of `Cc1cccc(C)c1NC(=O)CN(C)C(=O)/C=C/c1cccs1` it was -0.227; in that of `COc1cc(CC(=O)Nc2ccc(S(=O)(=O)Nc3ncccn3)cc2)cc(OC)c1OC`, 1.19.
For `Cc1cc(C)cc(NC(=O)NC2CCN(CC(=O)Nc3c(C)cc(C)cc3C)CC2)c1` the value was 0.931; for `COc1ccc(NC(=O)N(Cc2ccc(C)cc2)Cc2ccccn2)c(OC)c1`, -0.566.
Consider `Cc1cc(NC(=O)COC(=O)[C@H](Cc2c[nH]c3ccccc23)NC(=O)c2ccc(F)cc2)no1`, for which the z-score is -2.29.
As for `O=C(NC(=S)Nc1ccc(Oc2ccccc2)cc1)c1ccc(Cl)cc1`, the z-score came out at 1.23.
For `CCn1nnc(-c2ccccc2NS(=O)(=O)c2ccc(S(=O)(=O)N3CCCCCC3)cc2)n1` the value was -0.187; for `O=C(NCc1ccc(C(F)(F)F)cc1)C1CC(c2c(Cl)cccc2Cl)=NO1` (stereo not given), -0.237.
Consider `COc1ccc(COC(=O)c2nc3nc(C)cc(C)n3n2)cc1F`, for which the z-score is -0.584.
In the case of `CCOCc1nnc(NC(=O)c2ccc(OC)cc2)s1` it was 0.472; in that of `O=C(COc1cc(O)c2c(=O)cc(-c3ccccc3)oc2c1)c1ccccc1`, 0.0143; in that of `CC1=C(C)CC(C(=O)Nc2cccc(Cl)c2)C(C(=O)O)C1` (stereo not given), -0.289.
In the case of `Cc1ccccc1C(=O)N1CCC(C(=O)O)CC1` it was 0.775; in that of `Cc1cccc(/C(N)=N/OC(=O)c2ccc(Cl)cc2Cl)c1`, -0.137; in that of `Nc1c(Sc2ccccc2)c(=O)[nH]c(=O)n1Cc1ccccc1`, -1.01.
On to `O=c1c2ccccc2nc2c3ccccc3ncn12`, for which the z-score was -0.105.
Compound `COc1cc2[nH]c3c(N4CCN(c5ccc(Cl)cc5)CC4)ncnc3c2cc1OC` registered a z-score of -0.117.
For `CS(=O)(=O)Nc1ccccc1C(=O)Nc1ccccc1Cl` the value was -0.0832; for `CCN(CC)CCCNC(=O)c1cn(CCOC)c(=O)c2c1c1ccccc1n2C`, -0.357; for `O=S(=O)(Cc1ccccc1)NCc1ccccn1`, 0.0602.
For `CCc1ccccc1NC(=O)NC1CCCCC1` the value was -0.1.
In the case of `CCN(CC)S(=O)(=O)c1ccc(N/N=C(\C)c2ccc3c(c2)OCO3)c([N+](=O)[O-])c1` it was -1.24; in that of `COc1ccc(N2CCN(C(=O)CSc3nnc4c5cc(C)ccc5n(C)c4n3)CC2)cc1`, -0.181.
In the case of `Cc1cccc(NC(=O)CN2C(=O)N/C(=C\c3ccc(N4CCOCC4)cc3)C2=O)c1`, the z-score was found to be 0.186.
For `COc1ccc(C(=O)NCC(=O)OCC(=O)c2ccc3c(c2)OCCO3)cc1` the value was -0.196; for `CC(=C/c1ccc(C(C)C)cc1)/C=N/NC(=O)c1ccncc1`, 2.21; for `Cc1nc(CSc2ccc(Cl)cc2)cc(NCc2ccccc2)n1`, 1.02.
On to `O=C(CCNS(=O)(=O)c1ccc2c(c1)CCC(=O)N2)NCc1cccnc1`, for which the z-score is -0.489.
The compound `Cc1cc(Cl)ccc1OCC(=O)N1CCCCC1` came in with a z-score of 0.592.
For `Cc1ccc(C(=O)N/C(=C/c2ccco2)C(=O)NCC2CCCO2)cc1` (stereo not given) the value was -0.297.
`COc1ccc(-c2noc(CSc3nc4sc(C)c(C)c4c(=O)n3-c3ccccc3)n2)cc1OC` returned a z-score of -1.48.
Consider `COc1ccc(OC)c(-c2cc(C(=O)Nc3c(C)nn(Cc4ccccc4)c3C)no2)c1`, for which the z-score was -0.945.
`CC1CC(C)CN(S(=O)(=O)c2ccc(C(=O)Nc3sccc3C(N)=O)cc2)C1` (stereo not given) yielded a z-score of -0.179.
For `CCOC(=O)C1=C(C)C(c2ccc(OC)cc2)NC(=S)N1` (stereo not given) the value was 0.0191; for `CCOC(=O)N1CCC(NC(=O)c2ccc3c(c2)N(Cc2ccc(C)cc2)CCS3)CC1`, 1.04.
In the case of `COCCNC(=O)c1onc(CSc2ccc(C)c(C)c2)c1C(=O)O` it was -0.0285.
For `CCOc1ccc2c(c1)C(c1ccc(C)cc1)=NNC(c1ccc(C)cc1)=N2` the value was -0.774; for `COc1ccc(-c2cc(-c3ccc(C)cc3)nc(SCc3nnc(-c4ccccc4)o3)c2C#N)cc1OC`, -0.105.
